Where a chain is given by its changes, count along the chain named. This is one part of the list.
T1: RBFOX1 RRM (Homo sapiens, UniProt Q9NWB1 109-208)
T1 sequence: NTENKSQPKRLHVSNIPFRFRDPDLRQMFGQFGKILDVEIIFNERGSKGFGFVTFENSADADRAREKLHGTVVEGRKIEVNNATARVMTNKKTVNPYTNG

B1: UCAAACG (DNA:RNA)
RNA: GGGAGACCGGAAUUCAGAUUGUCCUCAAACGUUAAAUCCCGUCGUAGCCACCA
DNA 1: CAATCTGAATTCCGGTCTCCC
DNA 2: TGGTGGCTACGACGGGATT
B2: AAUGUUU (DNA:RNA)
RNA: GGGAGACCGGAAUUCAGAUUGUCCAAUGUUUUUAAAUCCCGUCGUAGCCACCA
DNA 1: CAATCTGAATTCCGGTCTCCC
DNA 2: TGGTGGCTACGACGGGATT
B3: CGAUGCU (DNA:RNA)
RNA: B1 RNA with U25C, C26G, A28U, A29G, G31U
DNA 1: CAATCTGAATTCCGGTCTCCC
DNA 2: TGGTGGCTACGACGGGATT
B4: ACUUAGA (DNA:RNA)
RNA: B2 RNA with A26C, G28U, U29A, U30G, U31A
DNA 1: CAATCTGAATTCCGGTCTCCC
DNA 2: TGGTGGCTACGACGGGATT
B5: AAAUCCC (DNA:RNA)
RNA: B2 RNA with U27A, G28U, U29C, U30C, U31C
DNA 1: CAATCTGAATTCCGGTCTCCC
DNA 2: TGGTGGCTACGACGGGATT
B6: ACGUUAU (DNA:RNA)
RNA: B2 RNA with A26C, U27G, G28U, U30A
DNA 1: CAATCTGAATTCCGGTCTCCC
DNA 2: TGGTGGCTACGACGGGATT
B7: AAUAGCC (DNA:RNA)
RNA: B2 RNA with G28A, U29G, U30C, U31C
DNA 1: CAATCTGAATTCCGGTCTCCC
DNA 2: TGGTGGCTACGACGGGATT
B8: AGAAGAA (DNA:RNA)
RNA: B1 RNA with U25A, C26G, A29G, C30A, G31A
DNA 1: CAATCTGAATTCCGGTCTCCC
DNA 2: TGGTGGCTACGACGGGATT
B9: CCAAGAA (DNA:RNA)
RNA: B1 RNA with U25C, A29G, C30A, G31A
DNA 1: CAATCTGAATTCCGGTCTCCC
DNA 2: TGGTGGCTACGACGGGATT
B10: GGGUCUU (DNA:RNA)
RNA: B2 RNA with A25G, A26G, U27G, G28U, U29C
DNA 1: CAATCTGAATTCCGGTCTCCC
DNA 2: TGGTGGCTACGACGGGATT
B11: UCAUAGG (DNA:RNA)
RNA: B1 RNA with A28U, C30G
DNA 1: CAATCTGAATTCCGGTCTCCC
DNA 2: TGGTGGCTACGACGGGATT
B12: GCAUCCG (DNA:RNA)
RNA: B1 RNA with U25G, A28U, A29C
DNA 1: CAATCTGAATTCCGGTCTCCC
DNA 2: TGGTGGCTACGACGGGATT
B13: UACUACU (DNA:RNA)
RNA: B1 RNA with C26A, A27C, A28U, G31U
DNA 1: CAATCTGAATTCCGGTCTCCC
DNA 2: TGGTGGCTACGACGGGATT
B14: AGUACGU (DNA:RNA)
RNA: B2 RNA with A26G, G28A, U29C, U30G
DNA 1: CAATCTGAATTCCGGTCTCCC
DNA 2: TGGTGGCTACGACGGGATT
B15: CUCUUCU (DNA:RNA)
RNA: B2 RNA with A25C, A26U, U27C, G28U, U30C
DNA 1: CAATCTGAATTCCGGTCTCCC
DNA 2: TGGTGGCTACGACGGGATT
B16: GGGGUUA (DNA:RNA)
RNA: B2 RNA with A25G, A26G, U27G, U31A
DNA 1: CAATCTGAATTCCGGTCTCCC
DNA 2: TGGTGGCTACGACGGGATT
B17: GGUAAUU (DNA:RNA)
RNA: B2 RNA with A25G, A26G, G28A, U29A
DNA 1: CAATCTGAATTCCGGTCTCCC
DNA 2: TGGTGGCTACGACGGGATT
B18: UCCUCGC (DNA:RNA)
RNA: B1 RNA with A27C, A28U, A29C, C30G, G31C
DNA 1: CAATCTGAATTCCGGTCTCCC
DNA 2: TGGTGGCTACGACGGGATT
B19: GAUGACG (DNA:RNA)
RNA: B2 RNA with A25G, U29A, U30C, U31G
DNA 1: CAATCTGAATTCCGGTCTCCC
DNA 2: TGGTGGCTACGACGGGATT
B20: AACGCAC (DNA:RNA)
RNA: B2 RNA with U27C, U29C, U30A, U31C
DNA 1: CAATCTGAATTCCGGTCTCCC
DNA 2: TGGTGGCTACGACGGGATT
B21: GAAGACA (DNA:RNA)
RNA: B1 RNA with U25G, C26A, A28G, G31A
DNA 1: CAATCTGAATTCCGGTCTCCC
DNA 2: TGGTGGCTACGACGGGATT
B22: GAUGAGA (DNA:RNA)
RNA: B2 RNA with A25G, U29A, U30G, U31A
DNA 1: CAATCTGAATTCCGGTCTCCC
DNA 2: TGGTGGCTACGACGGGATT
B23: CUCUCAU (DNA:RNA)
RNA: B2 RNA with A25C, A26U, U27C, G28U, U29C, U30A
DNA 1: CAATCTGAATTCCGGTCTCCC
DNA 2: TGGTGGCTACGACGGGATT
B24: UUGGCCU (DNA:RNA)
RNA: B2 RNA with A25U, A26U, U27G, U29C, U30C
DNA 1: CAATCTGAATTCCGGTCTCCC
DNA 2: TGGTGGCTACGACGGGATT
B25: CGGGACA (DNA:RNA)
RNA: B1 RNA with U25C, C26G, A27G, A28G, G31A
DNA 1: CAATCTGAATTCCGGTCTCCC
DNA 2: TGGTGGCTACGACGGGATT
B26: GUUGGGG (DNA:RNA)
RNA: B2 RNA with A25G, A26U, U29G, U30G, U31G
DNA 1: CAATCTGAATTCCGGTCTCCC
DNA 2: TGGTGGCTACGACGGGATT
B27: UAAAAGA (DNA:RNA)
RNA: B1 RNA with C26A, C30G, G31A
DNA 1: CAATCTGAATTCCGGTCTCCC
DNA 2: TGGTGGCTACGACGGGATT
B28: AUGUAUU (DNA:RNA)
RNA: B2 RNA with A26U, U27G, G28U, U29A
DNA 1: CAATCTGAATTCCGGTCTCCC
DNA 2: TGGTGGCTACGACGGGATT
B29: CUCCGUU (DNA:RNA)
RNA: B2 RNA with A25C, A26U, U27C, G28C, U29G
DNA 1: CAATCTGAATTCCGGTCTCCC
DNA 2: TGGTGGCTACGACGGGATT
B30: CUCCGGG (DNA:RNA)
RNA: B1 RNA with U25C, C26U, A27C, A28C, A29G, C30G
DNA 1: CAATCTGAATTCCGGTCTCCC
DNA 2: TGGTGGCTACGACGGGATT
B31: GAUACAC (DNA:RNA)
RNA: B2 RNA with A25G, G28A, U29C, U30A, U31C
DNA 1: CAATCTGAATTCCGGTCTCCC
DNA 2: TGGTGGCTACGACGGGATT

Molecular target: T1, RBFOX1 RRM
Assay: EMSA; HiTS-Eq, 1 nM pool, 10 min; buffer printed only for the single-RNA assays: 10 mM Tris pH 7.5, 150 mM NaCl, 3.4 mM EDTA, 0.001% NP-40, 30 C
Details: tags: His6 N-terminal (pET28a); label: 5' 32P
Procedure, shortened: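 Purified RbFox RRM, wild type or mutant, was incubated for 10 min in 50 µL with 1 nM of a 5′-radiolabelled RNA pool carrying 7 randomized nucleotides, whose flanks were annealed to DNA oligonucleotides, over a series of increasing protein concentrations. Unbound RNA was resolved on 8% native PAGE, cut out, reverse-transcribed, barcoded by PCR and sequenced on an Illumina HiSeq 2500. Relative association constants were derived from changes in read counts for each RNA species versus the control reaction and normalised to the cognate motif.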

| Binder | binding signal |
| --- | --- |
| B1 | 0.00325 KA relative to UGCAUGU |
| B2 | 0.00815 KA relative to UGCAUGU |
| B3 | 0.0159 KA relative to UGCAUGU |
| B4 | 0.00869 KA relative to UGCAUGU |
| B5 | 0.000947 KA relative to UGCAUGU |
| B6 | 0.00327 KA relative to UGCAUGU |
| B7 | 0.00402 KA relative to UGCAUGU |
| B8 | 0.0051 KA relative to UGCAUGU |
| B9 | 0.00338 KA relative to UGCAUGU |
| B10 | 0.00918 KA relative to UGCAUGU |
| B11 | 0.00483 KA relative to UGCAUGU |
| B12 | 0.0325 KA relative to UGCAUGU |
| B13 | 0.00344 KA relative to UGCAUGU |
| B14 | 0.00915 KA relative to UGCAUGU |
| B15 | 0.00532 KA relative to UGCAUGU |
| B16 | 0.0364 KA relative to UGCAUGU |

| Binder | binding signal |
| --- | --- |
| B17 | 0.00329 KA relative to UGCAUGU |
| B18 | 0.00514 KA relative to UGCAUGU |
| B19 | 0.0127 KA relative to UGCAUGU |
| B20 | 0.0031 KA relative to UGCAUGU |
| B21 | 0.00676 KA relative to UGCAUGU |
| B22 | 0.0153 KA relative to UGCAUGU |
| B23 | 0.00156 KA relative to UGCAUGU |
| B24 | 0.0232 KA relative to UGCAUGU |
| B25 | 0.015 KA relative to UGCAUGU |
| B26 | 0.0116 KA relative to UGCAUGU |
| B27 | 0.00608 KA relative to UGCAUGU |
| B28 | 0.00316 KA relative to UGCAUGU |
| B29 | 0.00719 KA relative to UGCAUGU |
| B30 | 0.00445 KA relative to UGCAUGU |
| B31 | 0.00177 KA relative to UGCAUGU |

From article PMC9911399, “Two distinct binding modes provide the RNA-binding protein RbFox with extraordinary sequence specificity”
